Experimental data taken from PubChem BioAssay AID504937 (National Center for Advancing Translational Sciences (NCATS), 2011).
The whole screen tested about 340,000 compounds, of which about 20 (0.006%) were called active. The shares of active, inactive and inconclusive entries below differ from those in the screen. Calls follow the shape of the dose curve; as a rule, active = well fitted inhibition curve with a large enough effect; inconclusive = small, poorly fitted or top-dose-only effect; inactive = no such curve, though single readings can be large or run the other way. A potency beside an inconclusive call is a rough fit, not a confirmed value.

target: Sphingomyelin phosphodiesterase (Homo sapiens) (UniProt P17405); assay: Inhibitors of Secretory Acid Sphingomyelinase (S-ASM): qHTS; conditions: placental ASM, HMU-PC fluorogenic substrate (series up to 57.5 µM), 60 min; activity change, negative = inhibition: at the top concentration
UniProt P17405, sequence (P17405 whole entry, looked up): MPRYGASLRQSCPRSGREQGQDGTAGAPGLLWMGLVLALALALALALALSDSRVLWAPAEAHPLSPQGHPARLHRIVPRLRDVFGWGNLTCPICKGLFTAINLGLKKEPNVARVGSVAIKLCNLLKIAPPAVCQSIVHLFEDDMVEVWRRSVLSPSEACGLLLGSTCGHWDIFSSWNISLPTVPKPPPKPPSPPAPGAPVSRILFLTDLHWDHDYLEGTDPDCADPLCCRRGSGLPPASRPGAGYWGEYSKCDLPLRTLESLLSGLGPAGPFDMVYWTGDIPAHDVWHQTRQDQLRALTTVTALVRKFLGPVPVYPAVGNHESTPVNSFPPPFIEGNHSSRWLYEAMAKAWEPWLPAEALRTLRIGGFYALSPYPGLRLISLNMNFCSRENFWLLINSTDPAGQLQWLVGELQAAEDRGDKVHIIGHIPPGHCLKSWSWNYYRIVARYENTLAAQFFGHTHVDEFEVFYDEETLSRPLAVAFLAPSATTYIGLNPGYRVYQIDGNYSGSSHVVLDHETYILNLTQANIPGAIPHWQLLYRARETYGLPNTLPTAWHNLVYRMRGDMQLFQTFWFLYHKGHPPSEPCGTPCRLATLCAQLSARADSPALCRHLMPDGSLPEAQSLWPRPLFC
Outline: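 Human placenta-derived ASM preincubated with compound 10 min at room temperature, then reacted with 9 uM (final) fluorogenic HMU-PC substrate for 60 min at 37 C. Stop solution raises pH to 10; fluorescence read at Ex 386/Em 447 nm.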
Potency is read from the fitted curve at half-maximal effect; tags tell the direction and shape of the fitted curve.

Row | Structure (SMILES) | activity change, negative = inhibition | Potency
1 | COc1ccc(CNC(=O)CCS(=O)(=O)c2cc3c(cc2Cl)NC(=O)CO3)cc1 | inactive: 1.3% | –
2 | C[C@H](NC(=O)c1ccco1)C(=O)Nc1nc(-c2ccccn2)cs1 | inactive: 3.03% | –
3 | Cc1ccc(C)c(Cn2nnc3c(=O)[nH]c(C4CCN(C(=O)c5cccs5)CC4)nc32)c1 | – | inconclusive: 89.1 µM [inhibitor, partial curve, poor fit]
4 | COC(=O)c1ccc(-c2c(-c3ccccc3)ncc3cc(F)ccc23)cc1 | inactive: -6.99% | –
5 | CCSc1nnc(NC(=O)c2nc(-c3ccccc3)n(-c3ccccc3)n2)s1 | inactive: -8.44% | –
6 | Cc1cccc(N2C(=O)CC(SC(=Nc3ccccc3)Nc3ccccc3)C2=O)c1 (configuration not stated) | – | inconclusive: 112 µM [inhibitor, partial curve]
7 | Cc1cc(C)cc(OCCn2nnc3ccccc32)c1 | inactive: -3.35% | –
8 | N#Cc1c(Nc2ccccc2)sc(C(=O)c2ccc(F)cc2)c1N | – | inconclusive: 89.1 µM [inhibitor, single point]
9 | Cc1ccccc1OCc1nnc(SCC(=O)O)n1Cc1ccccc1 | inactive: 8.12% | –
10 | COC(=O)C1=C(C)N(c2cccc(Cl)c2)C(=O)C1 | inactive: -2.73% | –
11 | Cn1c(=O)n(C)c2cc(/C=N/NC(=S)NCc3ccccc3)ccc21 | – | inconclusive: 79.4 µM [inhibitor, single point]
12 | CCOC(=O)c1c(C=O)c(C)n(Cc2ccc(C)cc2)c1C | inactive: -10.9% | –
13 | O=C1[C@H](Cc2ccccc2)NCCCC[C@@H](c2ccc(Cl)cc2)N1Cc1ccc(Cl)cc1 | – | inconclusive: 100 µM [inhibitor, partial curve, poor fit]
14 | CN(C)c1ccc(C=c2c3ccccc3n3c2c2c([n+]3C)CCCC2)cc1 | – | inconclusive: 79.4 µM [inhibitor, single point]
15 | CCN(CC)c1ccc(/C=N/NS(=O)(=O)c2ccc(C)c([N+](=O)[O-])c2)cc1 | inactive: -7.38% | –
16 | COc1ccccc1CC(=O)Nc1cc2oc3ccccc3c2cc1OC | – | inconclusive: 1260 µM [inhibitor, partial curve, poor fit]
17 | COc1ccccc1Nc1ccc(NC(=O)c2cccc([N+](=O)[O-])c2C)cc1 | – | inconclusive: 251 µM [inhibitor, partial curve, poor fit]
18 | Cc1nn(-c2ccccn2)c2nc(-c3cccs3)cc(C(=O)NCc3ccco3)c12 | inactive: 79.8% | –
19 | O=C(C[C@H]1C[C@H](C(=O)N2CCCCC2)[C@@]2(CCc3ccccc3)c3[nH]c4ccc(Cl)cc4c3CCN2C1=O)NCCc1ccccn1 | – | inconclusive: 79.4 µM [inhibitor, single point]
20 | Cc1cc(SCC(=O)Nc2ccc(O)cc2)n2nc(C)c(-c3ccccc3)c2n1 | inactive: -5.21% | –
21 | CCCOC(=O)c1ccc(Oc2cn[nH]c2-c2ccc(OC)cc2O)cc1 | – | inconclusive: 100 µM [inhibitor, single point]
22 | COc1ccc(-c2nc(N)nc(C)c2Oc2ccccc2Br)c(O)c1 | – | inconclusive: 100 µM [inhibitor, partial curve, poor fit]
23 | Cc1onc(-c2ccccc2)c1C(=O)N(Cc1ccccn1)Cc1ccccn1 | inactive: 3.64% | –

Row | Structure (SMILES) | activity change, negative = inhibition | Potency
24 | CCOC(=O)c1cc(C(=O)OCC)c(=O)[nH]c1C | inactive: 1.09% | –
25 | Cc1cccc(-n2ncc3c(Nc4ccc(F)cc4)ncnc32)c1 | – | inconclusive: 631 µM [inhibitor, partial curve, poor fit]
26 | Cc1nn(-c2ccccc2)c(N2CCCC2)c1/C=N/Nc1ccc(S(=O)(=O)Nc2ccccc2)cc1[N+](=O)[O-] | – | inconclusive: 398 µM [inhibitor, partial curve, poor fit]
27 | CCc1ccc(-c2csc(NC(=O)C3=NN(c4ccccc4)C(=O)CC3)n2)cc1 | – | inconclusive: 200 µM [inhibitor, partial curve, poor fit]
28 | COc1ccc(-c2csc(NC(=O)C3=NN(c4ccccc4)C(=O)CC3)n2)cc1 | – | inconclusive: 1580 µM [inhibitor, partial curve, poor fit]
29 | CCOC(=O)c1c(CNCCN(CC)CC)n(C)c2cc(Br)c(OC)cc12 | inactive: -2.88% | –
30 | Cc1nc(-c2ccc(S(=O)(=O)NCC3CCN(C(=O)OC(C)(C)C)CC3)s2)cs1 | – | inconclusive: 4470 µM [inhibitor, partial curve, poor fit]
31 | NS(=O)(=O)c1cc(C(=O)NC2CCSc3ccccc32)ccc1Cl (configuration not stated) | – | inconclusive: 35.5 µM [inhibitor, partial curve, poor fit]
32 | Cc1cc(C)c(S(=O)(=O)NCCc2cc3ccc(C)c(C)c3[nH]c2=O)c(C)c1 | – | inconclusive: 89.1 µM [inhibitor, partial curve, poor fit]
33 | CCCc1nn(C)c(C(=O)Nc2cccc(CC)c2)c1Cl | inactive: -0.852% | –
34 | CCOc1ccc(N2C(=O)S/C(=C\c3cccn3C)C2=O)cc1 | inactive: -0.446% | –
35 | Cc1cccc([C@@H]2[C@@H]3C(=O)N(Cc4ccccc4)C(=O)[C@@H]3[C@]3(C)C(=O)N(c4ccc(C(F)(F)F)cc4)C(=O)N23)c1 | – | inconclusive: 39.8 µM [inhibitor, partial curve, poor fit]
36 | COc1ccc(N2CCN(C(=O)c3cn(C4CCCC4)c(=O)c4c3c3ccccc3n4C)CC2)cc1 | inactive: -17.9% | –
37 | CCOC(=O)NC(=O)CSc1cc(C)c2cc(C)cc(C)c2n1 | – | inconclusive: 1120 µM [inhibitor, partial curve, poor fit]
38 | CCOc1ccc(-n2cc(C(=O)Nc3cccc(OC)c3)c3cc(OC)c(OC)cc3c2=O)cc1 | – | inconclusive: 100 µM [inhibitor, partial curve]
39 | Nc1nc(-c2ccccc2)cc(-c2ccccc2O)n1 | – | inconclusive: 44.7 µM [inhibitor, partial curve, poor fit]
40 | CCCc1ccc(-c2c(C)sc(NC(=O)c3ccnn3C)c2C#N)cc1 | – | inconclusive: 22.4 µM [inhibitor, partial curve, poor fit]
41 | Nc1ccc(C(=O)Nc2cccc(NC(=O)c3ccc(N)cc3)c2)cc1 | inactive: -1.11% | –
42 | COc1cc(/C=C(\C#N)c2nc3ccc(C)cc3[nH]2)cc([N+](=O)[O-])c1O | – | inconclusive: 50.1 µM [inhibitor, partial curve]
43 | CC(=O)NC(c1ccc(Cl)cc1Cl)c1ccc2cccnc2c1O (configuration not stated) | inactive: -3.86% | –
44 | O=C(O)c1cccc(N2C(=O)C3C4C=CC(C4=C(c4ccccc4)c4ccccc4)C3C2=O)c1 (configuration not stated) | – | inconclusive: 89.1 µM [inhibitor, single point]
45 | O=C(Nc1ccc(CN2CCOCC2)cc1)c1ccc(-c2cc(Cl)ccc2Cl)o1 | – | inconclusive: 89.1 µM [inhibitor, single point]
46 | CCNC(=S)N/N=C/c1cn(Cc2ccccc2F)c2ccccc12 | – | inconclusive: 89.1 µM [inhibitor, single point]

Row | Structure (SMILES) | activity change, negative = inhibition | Potency
47 | CCOC(=O)C1=C(CN2CCN(C(=O)c3ccco3)CC2)NC(=O)NC1c1ccc(Cl)cc1 (configuration not stated) | inactive: 1.99% | –
48 | CC(=O)N1CCCc2ccc(NS(=O)(=O)c3ccccc3)cc21 | inactive: 7.31% | –
49 | COc1ccc(-c2nn(-c3ccccc3)cc2/C=C2/SC(=S)N(CCCC(=O)O)C2=O)c(C)c1 | – | inconclusive: 112 µM [inhibitor, partial curve, poor fit]
50 | O=C(NN1C(=O)/C(=C/C=C/c2ccccc2)SC1=S)c1ccncc1 | – | inconclusive: 89.1 µM [inhibitor, single point]
51 | COC(=O)[C@@H]1CCCN1C(=O)CCc1nnc(CCC2CCCCC2)o1 | inactive: 0.918% | –
52 | Nc1nonc1-n1nnc(C(=O)N/N=C/c2ccoc2)c1CSc1ccc(Cl)cc1 | – | inconclusive: 112 µM [inhibitor, partial curve, poor fit]
53 | Cc1ccc2c(c1)c1c3n2CCN(C(=O)CN2CCN(C)CC2)C3CCC1 (configuration not stated) | inactive: -5.37% | –
54 | O=C(CCCc1ccccc1)N1CCN(c2ccc([N+](=O)[O-])cc2)CC1 | inactive: -14.7% | –
55 | COCCNC(=O)C(c1ccc(C)o1)N(Cc1ccco1)C(=O)c1snc(C(N)=O)c1N (configuration not stated) | inactive: 229% | –
56 | Cc1cccc(NC(=S)NC(=O)Cc2ccccc2)c1C | inactive: -7.64% | –
57 | COc1ccccc1-c1sc2ccccc2c1-c1ccc(OCCN2CCCCC2)cc1 | – | inconclusive: 89.1 µM [inhibitor, partial curve, poor fit]
58 | COc1cc(/C=C2\SC(=S)N(CC(=O)Nc3cccnc3)C2=O)cc(OC)c1OC | – | inconclusive: 56.2 µM [inhibitor, partial curve, poor fit]
59 | COc1ccc2c(CC(=O)OCC(=O)Nc3sc4c(c3C#N)CCC(C)C4)coc2c1 (configuration not stated) | – | inconclusive: 1410 µM [inhibitor, partial curve, poor fit]
60 | CN1C=CC=C/C1=C(\C#N)c1nc2ccccc2[nH]1 | – | inconclusive: 316 µM [inhibitor, partial curve, poor fit]
61 | CCN(CC)C(=O)[C@H]1CC(CC(=O)NCCCn2ccnc2)C(=O)N2CCc3c([nH]c4ccccc34)[C@]12C (some centres not stated) | inactive: 4.8% | –
62 | CCOc1ccc(C(=O)Nc2cc(-c3nc4ccccc4[nH]3)ccc2C)cc1[N+](=O)[O-] | – | inconclusive: 316 µM [inhibitor, partial curve, poor fit]
63 | COc1cc(/C=N\NC(=O)c2ccc(-c3ccccc3)cc2)cc(OC)c1O | – | inconclusive: 89.1 µM [inhibitor, single point]
64 | Cc1ccc(-c2nc(CSc3nc4ccccc4c(=O)n3CCO)cs2)cc1 | – | inconclusive: 79.4 µM [inhibitor, single point]
65 | Cc1cc([N+](=O)[O-])ccc1NCc1ccccc1 | inactive: -14.6% | –
66 | Cc1nn(-c2ccc(N3CCCCC3)nn2)c(C)c1CCC(=O)Nc1ccc(F)c(F)c1 | inactive: -1.25% | –
67 | CCN(C(=O)CC(C)C)c1nnc(Cn2nnc3ccccc32)s1 | inactive: -8.71% | –
